This passage reports growth results from PubChem BioAssay (NCI).

More than one record can exist for a structure, and the calls need not agree.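 Assay: single dose, 48 h. Readout: percent growth (0 = no net growth; negative = cell death). Active: <10.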 For part of its entries the source gives two or more results. This is not the full list of results. An entry can have further records. These are repeated runs of one drug, at the concentration stated with the values; each value is one run. Marks such as (2×) give the number of equal values in this list.

The subject of the experiment is BT-549 breast. The experiment in a line: NCI-60 one-dose screen, 48 h (100 = growth as untreated, 0 = no growth, -100 = all killed). As to conditions: 0.25 µM.

As for `COc1cccc2c1C(=O)c1c(O)c3c(c(O)c1C2=O)C[C@@](O)(C(=O)CO)C[C@@H]3OC1CC(N)C(O)C(C)O1` (stereo not given in full), the growth result (runs of 2008) is “inactive: 43.1, 62.9, 28.5, 60.6, 47.3, 50.4, 62, 61.2, 48.6, 70.1, 12.8, 45.3, 42.4, 34.2, 48.1, 11.2, 25.6, 35.5, 36.4, 23.3, 35, 40.6, 26.9, 45.6, 112, 51.4, 27, 12.5, 20.8, 16.2, 10.9, 45.4, 11.5, 33, 47.4, 58.6, 42.3, 67.4, 25.9, 53.8, 50.1, 66.9, 44.4, 36, 27.1, 35.6, 43.4, 68.4, 56.4, 54.4% and active: -14.7%, -6.23%, 9.69%”; the growth result (runs of 2009) is “inactive: 46.7, 51.9, 48.3 (3×), 62.6, 57.7, 67.9, 41.7, 59.3, 59.9 (2×), 42.4, 57.4, 49.1, 59.6, 73.2, 54, 63.7, 37.4, 36.5, 43.6, 69.6, 50.3, 66, 44.2, 60, 51.2, 40.6, 10.4, 29.6, 50.8, 39.7, 52.5, 63.3, 61.8, 81.3, 47.3 (2×), 43.7, 54.2, 79, 53.9, 58.1, 40.2, 51.3, 42, 58.6, 48.5, 18.9, 64, 39.4, 61.5, 53.1, 62.7, 40, 61.7, 78.4, 45.6% and active: 6.38%, -2.31%, 8.75%”; the growth entry (runs of 2010) is “inactive: 40.6, 65.1, 63.1 (2×), 56.2, 54.4, 55.9, 58.1, 75, 67.2, 65.9, 63.7, 68, 70.4, 67.9, 57.4 (2×), 52.5, 73.7, 54.6, 60.3, 73.2, 59.9, 82, 56.4, 89.4, 49.3 (2×), 54.7, 44.5, 53, 50.9, 52.8, 45.1, 61.8, 52.6, 72.7, 65.3 (2×), 58.6, 57.6, 56.5, 55.5, 59, 51.5, 61.1, 58.3%”; the growth entry (runs of 2011) is “inactive: 69.9, 63.3, 41.2, 50.3, 64.6, 56.5, 49.6, 56.9, 65.9, 63.2, 57.1, 62.3, 62.1, 69.4, 51.7, 65.6, 67.5 (2×), 65.7, 68.8, 71.6, 66.9, 75.2, 71.4, 74, 64, 66.4, 45.5, 62.6, 61.1, 63.6, 54.6, 55.4, 56, 43.3, 58.8, 47.1, 51.9, 49.2, 21.5, 19.6, 30.2, 41.7, 26.4, 14.2, 35.4, 60.3, 50.9, 55.1, 58.5, 49.1, 44, 42.9, 53, 45, 64.7, 54.5%”; the growth entry (runs of 2012) was “inactive: 61.8, 40.4, 51.2, 44.4, 53.8, 55.8, 51.3, 65.3 (2×), 58.3, 40.2, 47.3, 46.2, 39.8, 49, 38.2, 45, 36.9, 49.7, 45.5, 31.4, 35.7, 35.9, 34.3, 43.2, 52.4, 56.8, 56.7, 56.4, 58.6, 52.3, 49.8, 43.7, 49.2, 53.6, 48.6, 47, 62.3, 65.5, 43.5, 76.2, 62.2, 58.2, 74.8, 78.5, 65.4, 73.1, 74.5, 66.7, 69, 86, 79.7, 86.4, 80.8, 83.6, 75.7, 64, 69.5, 68.8, 64.5, 74.4, 30, 66.2, 68.5, 51.9, 55.7, 60.7, 61.1, 45.9%”; the growth result (runs of 2013) is “inactive: 54, 53.7, 61.8, 66.6, 67.6, 65.4, 61.2, 72.4, 60.4, 66.7, 76, 66.2, 64.1, 70.7, 61.7, 74.7, 70, 70.1, 69.6, 68.3, 60.1, 63, 41.6, 83.4, 78.5, 80.1, 76.4, 80.9, 68.1, 71.9, 57.3, 72, 85.9, 68.7 (2×), 78.8, 84.1, 73.9, 69.8, 58.3, 69.7 (3×), 62.6, 62.9, 65.2, 67.2, 57.4, 65.1, 74.5, 68.4, 75.2, 64.6, 72.1, 73.6, 79.3, 71, 81.1, 55.5, 65, 56.1, 49.7, 59, 62.3, 71.2, 40.5, 56.2 (2×), 38.5, 34.8, 35.5, 29.9% and active: -3.04%”. The growth result runs as follows: (runs of 2014) “inactive: 40.7, 32.3, 35.3, 20.5, 48.2, 28.6, 40.4, 26.2, 36.6, 81.9, 56.4, 58.8, 29.7, 55.1, 53.8, 45.9, 63.7, 61, 56.9, 57.4 (2×), 68.6 (2×), 75.7, 55.3, 56.3 (2×), 57.1, 55.6, 57.8, 53.2, 52.8, 66.9, 38, 57, 51.2, 54.4, 53.1 (3×), 55.9 (3×), 52.6 (2×), 57.2, 56.5, 50.4, 49.5, 53.9, 51.4, 56.1, 58.1, 52.9, 58.7 (2×), 53.5, 51.1, 54.2, 47 (2×), 45.8, 67.6, 59.6, 60.9, 59.8, 52.7% and active: 9.99%”; (runs of 2015) “inactive: 54.5 (3×), 44.7, 37.6 (2×), 35.6, 46.2, 56.7, 52.7, 57 (2×), 43.5 (2×), 64.8, 60.3 (3×), 65.2, 69.2, 56.1, 51.4 (2×), 51.1, 48.3 (2×), 44.4, 41.1 (2×), 54.3, 58.6, 66.3, 75.1, 69.4, 42.8, 52 (2×), 47 (2×), 51.2, 57.8, 53.8, 45.9, 55.2 (2×), 60.6, 53.7, 44, 56.4, 54.8, 42, 50.4, 63.1, 45.7, 45.4, 54.2, 61.2, 78.5, 62.8, 55.8, 38.9, 49.8, 62, 53.9, 57.4, 59.3, 58.1, 58.4, 57.9, 60.1 (2×), 67.8, 58.3, 43.6, 63.2 (2×), 61.7, 39.4, 64.6, 67.3%”; (runs of 2016) “inactive: 58.5, 58.3, 60.8, 59.8, 68, 54, 60.9, 61.6 (2×), 60.4, 65.4, 56.7 (3×), 62.5, 35.9, 38.9, 50.4, 57, 57.6, 43.9, 52, 46.3, 37.9, 46.7, 43.3, 43.1, 39.4, 44.2, 41.7, 46.6, 45.3, 45.2, 45.5, 48.2, 62.6, 62.9, 69.6 (2×), 81, 63 (2×), 75, 74.7, 59.2, 66.3, 70.2, 72.7, 39.5, 54.7, 51.5, 65.1, 50.2, 63.7, 62.3, 69.3, 76, 67.9, 71.3, 60.6, 72.2, 62.4, 75.5, 76.5, 81.8, 64.6, 57.2, 53.5, 61.1, 52.6, 61.2, 56.8, 57.1, 58.4, 66.4, 65.6, 73.7%”; (runs of 2017) “inactive: 62.8, 60.8, 68.2, 58.7 (2×), 59.3 (2×), 46.6, 57.2 (2×), 45.9, 58 (3×), 44.8, 57.6, 52, 46.7, 52.8, 63.7, 42.4 (2×), 49.8, 43.9, 47.3, 45, 57.7, 44.2, 54.2, 43.2, 60.2, 46.4, 66.3 (2×), 54, 58.3, 55.9, 61.1, 49.7, 50.7, 53.9, 62.3, 49.1, 55.5 (2×), 43.3, 47, 46.9, 56, 49.3, 54.4 (5×), 56.7, 50.9, 45.7, 45.4, 80, 41.7, 53, 60.9, 65.2, 64.1, 49, 56.2, 62.4, 54.6, 61.7, 55.3 (2×), 60, 51.6, 65, 66, 58.1, 51.1, 49.9, 53.1, 48.1%”; (runs of 2018) “inactive: 63.7 (2×), 54, 55.3 (2×), 57.7 (2×), 58.8, 60.2 (2×), 60.1 (3×), 46.9, 49.8, 54.2, 53.8 (2×), 59.9, 54.5, 55.2 (2×), 61.8, 54.6, 50.3, 52.5 (2×), 68.5, 66.7, 59.8, 65.3, 66.5, 56.5, 65.7, 58.5 (2×), 65.1, 67, 61.9, 60, 62.2, 62, 62.7, 61.2 (2×), 56.2, 55.8, 54.3 (2×), 41.6, 49.4, 62.1, 43.6, 48.1, 51.4%”; (runs of 2019) “inactive: 51.4, 40.4, 39.2, 47.1, 56.3, 44.8 (2×), 46.6, 43.2, 38.4, 42, 48 (3×), 37.6, 35.5, 45.1, 53.4, 40.7, 67.5, 62.5, 63.7, 53.6 (2×), 58, 50.1, 41.2, 42.3, 47.6, 47, 44.2, 45.9, 43.4, 45.5, 40.9, 51.3, 43.1, 65.4, 55.8, 46.9, 45.2, 47.5, 52.5, 47.9, 49.6, 55.4%”. Further, the growth result by setting is: (runs of 2020) “inactive: 51.7, 61.4, 58, 58.2, 58.1, 50.2, 40.9, 45.8, 43.9, 47.4, 54.3, 57.1, 52.7, 62.6, 48.6, 50.7, 54.8, 55.5, 51.2, 57.8, 56, 68.1%”; (runs of 2021) “inactive: 51.7, 50.7 (2×), 55.8, 69.3, 63.6, 74.4, 50.2, 52.9, 51.5, 49.2, 61.8, 69.4, 71.1, 52.5, 46.1 (2×), 38.3, 42.2, 39.4, 36.5, 29.5, 41.5, 40.2, 34.8, 40.9, 50.1, 46.7, 37 (2×), 40.5, 37.8, 35.6, 53.9, 51.2, 42.3, 71.4, 36.6, 52.6, 36, 43.8, 31.9, 20.5, 37.6, 45.4, 24.2, 30.3, 48, 33.8%”; (runs of 2022) “active: 8.69, 9.02, -19, 4.07% and inactive: 38.9, 41.9, 11, 16.8, 41.7, 59, 46.6, 51.5, 41.2, 41.3, 30.4, 33.1, 32.9, 59.9, 82.2, 65.7, 69, 77.9, 38.1, 35.6, 36.6%”.
